Read counts are not given, so values of variants with three or more changes are uncertain.

B1: CPEB3 Ribozyme (parent)
chain: UAACAGGGGGCCACAGCAGAAGCGUUCACGUCGCAGCCCCUGUCAGAUUCUGGUGAAUCUGCGAAUUCUGCUGUAUAUCUC

The variants in this series derive from B1. Kind of series: self-cleavage, relative activity (ratio to wild type); higher = more cleavage; in vitro, sequencing. In outline: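 CPEB3 self-cleaving ribozyme mutant libraries were made by rounds of error-prone PCR, barcoded, and transcribed in vitro with T7 RNA polymerase for 5 hours at 37°C. Cleavage occurred during transcription and a 15 min DNase I step before EDTA stop. RNAs were reverse transcribed with template switching and Illumina-sequenced, with DNA sequencing mapping barcodes to variants. Relative activity is the variant's cleaved/total read fraction divided by wild type's (minimum 5 reads), averaged across three batches.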
UAGCAGGGGGCCACAGUAGAAGCGUUCACGUCGCUGCCCCUGUCAGAUUCUGGUGAAUCUGCGAAUUCUGCUGUAUAUCUC: the self-cleavage was 0.63.
For the variant UAGCAGGGGGCCACAGCAGAAGCGUUCACGUCGCAGCCCCUGUCAGGUUCUGGUGGAUCUGCGAAUUCUGCUGUAUAUCUC, the self-cleavage is 1.12.
UAGCAGGGGGCCACAGCAGAAGCGUUCACGUCGCUGCCCCUGUCAGAUUCUGGCGAAUCUGCGAAUUCUGCUGUAUAUCUC: the self-cleavage amounted to 0.46.
Next, UAGCAGGGGGCCACAGCAGAAGCGUUCAGGUCGCAGCCCCUGUCAGAUUCCGGUGAGUCUGCGAAUUCAGCUGUAUAUCUC: 0.36; UAGCAGGGGGUCACAGCAGAAGCGUUCACGUCGCAGCCUCUGUCAGAUUCUGGUGAAUCUGCGAAUUCUGCCGUAUAUCUC: 0.37.
Next, UAGCAGGGGGCCACAGCAGAAGCGUUCACGUCGCAGCCCCUGUCAGGUCCUGGUGAAUCUGCGAAUUCUGCUGUAUACCUC: 0.55; UAGCAGGGGGCAACAGCAGAGGCGUUCUCGUCGCAGCCCCUGUCAGAUUCUGGUGAAUCUGCGAAUUCUGCUGUAUAUCUC: 0.7.
Next, UAGCAGGGGGCCACAGCAGAAGCGUUCACGUCGCAGCCCCUGUCAGAUUCUGGUGGAUCUGCGAAUUCUGCUGUAUAUCCC: 0.84; UAGCAGGGGGCCACAGCAGAAGCGUUAAAGUCGCAGCCCCUGUCAGAUUCUGGUGAAUCUGCGAAUUCUGCUGUAUAUCUC: 0.47; UAGCAGGGGGCCACAGUAGAAGCGUUCACGUCGCAGCCCCUGUCAGAUUCUGGUGAAUCUGCGAAUUCUGCUGUAAAUCUC: 1.01.
Regarding UAGCAGGGGGCCACAGCAGAAGCGUUCACGUCGCAGCCCCUGUCAGAUUCUGGUGAAUCUGCGGUUUCUGCUGUAUAUCUC, the self-cleavage stood at 0.15.
With UAGCAGGGGGCCACAGCAGAAGCGUUCACGUCGCAGCCCCUGUCAGGUUCUGGUGAAUCUGCGAAUUCUGCUGUGUAUCUC, the self-cleavage is 0.99.
For the variant UAGCAGGGGGCCACAGGAGAAGCGUUCACGUCGCAGCCCCUGUCAGGUUCUGGUGAACCAGCGUAUUCUGCUGUAUAUCCC, the self-cleavage was found to be 0.54.
As for UAGCAGGGGGCCACAGCAGAAGCGUUCACGUCGCAGCCCCUGUCAGUCUCUGGUGAAUCUGCGGAUUCUGCUGUAUAUCUC, the self-cleavage worked out at 0.22.
For UAGCAGGGGGCCACAGCAGAAGUGUUCACGUCGCAGCCCCUGUCAGAUUCAGGUGAGUCUGCGAAUUCUGCUGUAUAUCUC, the self-cleavage came out at 0.36.
Consider UAGCAGGGGGCCAUAGCAGAUGCGUUCACGUCGCAGCCCCUGGCAGAUUCUGGUGAAUCUGCGAAUUCUGCUGUAUAUCUC, for which the self-cleavage is 0.48.
The value for UAGCAGGGGGCCACAGCAGAAGCGUUCACGUCGCAGCCCCUGUCAGUUUCUGGCGAAUCUGCGGAUUCUGCUGUAUAUCUC was 0.25; that for UAGCAGGGGGCCACAGCAGAAGCGUUCAAGUCGCAGCCCCCGUCAGAUUCUCGUGAAUCUGCGAAUUCUGCCGUAUAUCUC was 0.34; that for UAGCAGGGGGCCACAGCAGAAGCGUUAACGUAGCAGCCCCUGUCAGAUUCUGGUGAAUCUGCGAAUUCUGCCGUAUAUCUC was 0.08.
The value for UAGCAGGGGGCCACAGCAGAAGCGUUCACGUCGCGGCCCCUGUCAGGUUCUGGUGAAUCUGCGAAUUCUGCUGUAUAUCUC was 1.23; that for UAGCAGGGGGCCACAGCAGAAGCGUUCACGUCGCAGCCCCUGUCAGAUUCUGGUGUAUCUGCGAAUUCUGCUGUAUAUCAC was 0.31; that for UAGCAGGGGGCCACAGCAGAAGCGUUCUCGUCGCAGCCCCAGUCAGAUUCUGGUGAAUCUGCGAAUUCUGCUGUAUAUCUC was 0.08.
As for UAGCAGGGGGCCACAGCAGAAGCGUUCGCGUCGCAGCCCCAGUCAGAUUCUGGUGAAUCUGCGAAUUCUGCUGUAUAUCCC, the self-cleavage came to 0.06.
As to UAGCAGGGGGGCACAGCAGAAGCGCUCACGACGCAGCCCCUGUCAGAUUCUGGUGAAUCCGCGAAUUCUGCUGUAUAUCUC, the self-cleavage came to 0.05.
As for UAGCAGGGGGCCACAGCAGAAGCGUUCACGUCGCUGCCCCUGUCAGAUUCUGGUGAAUCUGCGUAUCCUGCUGUAUAUCUC, the self-cleavage came out at 0.29.
The value for UAGCAGGGGGCCACAGGAGAAGCGUUCACGUCGCAGCCCCUGUCAGAUUCUGGCGAAUCUGCGAAUUCUGCUGUAUAACUC was 0.09; that for UAGGAGGGGGCCACUGCAGAAGCGUCCACGUCGCAGCCCCUGUCAGAUUCUGGCGAAUCCGCGAAUUCUGCUGUAUAUCUC was 0.34.
As to UAGCAGGGGGCCACAGCAGAAGCGUUCACGUCGCAGCCCCUGUCAGGUUCUGGUGAAUCUGCGAAUUCUGCUGUAUACCUC, the self-cleavage is 0.79.
Next, UAGCAGGGGGCCACAGCAGAAGCGUUUACGCCGAAGCCCCUGUCCGAUUCUGGUGAAUCUGCCAAUUCCGCUGUAUAUCUC: 0.21; UAGCAGGGGGCCACAGCAGAAGCGUUCACGUCGCAGCCCCUGUCUGAUUCUGGUGAUUCUGCGAAUUCUGCUGUAUACCUC: 0.11; UAGCAGGGGGCCACAGCAGAAGCGUUCGCGUCGCAGCCCCUGUGGGAUUCUGGUGAAUCUGCGAAUUCUGCUGUAUAUCUC: 0.23.
For UAGCAGGGGGUCGCAGCAGAAGCGUCCACGUCGCAGCCCCUGUCAGAUUCUGGUGAAUCUACGAAUUCUGCUGUACAUCUC, the self-cleavage was 0.3.
Next, UAGCAGGGGGCCACAGCAGAAGCGUUCACGUCGCAGCCCCUGUCAGAUUCUGGUGUAUCUGCGAAUUCUGCUGUACAUCUC: 0.65; UAGCAGGGGGCCACAGCAGAAGCGUUCACGUCGCAGCCCCUGUCGGAUUCAGGUGAAUCUGCGAAUUCUGCUGUAUAUCCC: 0.69.

For the origin of these results see the RNAGym collection of RNA variant scans (doi:10.1093/nar/gkz1192).
